Data on six compounds can be found in PubChem BioAssay (NCATS).

This is one part of the list. Further columns of the screen follow, without active or inactive calls. Most of these compounds were active or inconclusive in the main read-out, so they are no random draw. Potencies come from curve fits of mixed quality, noted in brackets.

Assay in all cases: Confirmatory Screen for Target Class Profiling of Small Molecule Inhibitors of Methyltransferases (AID 1745852);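 further: inhibitor potency for blocking SAH production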
Experiment [1] has as its target Catechol O-methyltransferase (Homo sapiens) (UniProt P21964). The settings on record: MTase-Glo luminescence, SAH detection, recombinant enzyme; measured here: COMT inhibition potency.
The target of experiment [2] is Histamine N-methyltransferase (Homo sapiens) (UniProt P50135). As to conditions: MTase-Glo luminescence, SAH detection, recombinant enzyme; measured here: HNMT inhibition potency.
Experiment [3] addresses Nicotinamide N-methyltransferase (Homo sapiens) (UniProt P40261). As to conditions: MTase-Glo luminescence, SAH detection, recombinant enzyme; measured here: NNMT inhibition potency.
Experiment [4] has as its target Phenylethanolamine N-methyltransferase (Homo sapiens) (UniProt P11086). As to conditions: MTase-Glo luminescence, SAH detection, recombinant enzyme; measured here: PNMT inhibition potency.

Usually IC50 stands for the concentration at which inhibition is half-maximal.
Tags describe the fitted curve by direction and shape.

Chain of UniProt P21964 (P21964 whole entry, looked up): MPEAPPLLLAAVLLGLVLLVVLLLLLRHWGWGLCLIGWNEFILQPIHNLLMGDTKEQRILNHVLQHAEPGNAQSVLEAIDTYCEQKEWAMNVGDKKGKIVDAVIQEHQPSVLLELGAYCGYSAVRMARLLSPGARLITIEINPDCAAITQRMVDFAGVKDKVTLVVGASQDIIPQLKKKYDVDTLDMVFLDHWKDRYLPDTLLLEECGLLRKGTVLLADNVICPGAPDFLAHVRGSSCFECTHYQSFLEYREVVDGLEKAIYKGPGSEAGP
Chain of UniProt P50135 (P50135 whole entry, looked up): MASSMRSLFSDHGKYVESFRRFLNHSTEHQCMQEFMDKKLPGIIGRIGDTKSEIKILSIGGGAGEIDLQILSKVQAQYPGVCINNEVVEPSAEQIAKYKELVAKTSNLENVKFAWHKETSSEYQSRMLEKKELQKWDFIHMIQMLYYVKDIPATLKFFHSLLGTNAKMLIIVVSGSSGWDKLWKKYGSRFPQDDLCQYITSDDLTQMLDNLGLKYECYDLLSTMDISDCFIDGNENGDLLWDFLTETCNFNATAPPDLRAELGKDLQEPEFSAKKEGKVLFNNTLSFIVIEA
Chain of UniProt P40261 (P40261 whole entry, looked up): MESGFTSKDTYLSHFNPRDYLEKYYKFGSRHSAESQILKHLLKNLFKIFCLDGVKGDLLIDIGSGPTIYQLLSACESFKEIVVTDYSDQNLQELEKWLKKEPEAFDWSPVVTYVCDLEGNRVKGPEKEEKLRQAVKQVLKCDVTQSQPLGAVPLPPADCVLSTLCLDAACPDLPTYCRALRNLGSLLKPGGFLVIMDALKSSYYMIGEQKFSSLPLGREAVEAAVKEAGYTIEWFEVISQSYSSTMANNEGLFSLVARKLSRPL
Chain of UniProt P11086 (P11086 whole entry, looked up): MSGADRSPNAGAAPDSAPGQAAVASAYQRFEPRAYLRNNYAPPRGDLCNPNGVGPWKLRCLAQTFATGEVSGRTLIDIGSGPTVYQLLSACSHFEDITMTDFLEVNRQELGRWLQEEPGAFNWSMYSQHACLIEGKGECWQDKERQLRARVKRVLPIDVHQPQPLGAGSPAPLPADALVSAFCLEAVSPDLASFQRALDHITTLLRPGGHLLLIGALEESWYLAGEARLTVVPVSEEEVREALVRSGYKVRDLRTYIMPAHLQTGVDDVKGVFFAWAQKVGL

Consider `CCOc1cc(OCC)c2c(-c3ccccc3)cc(=O)oc2c1`, for which the IC50 in experiment [1] is 10.8 µM [falling, partial curve]; in experiment [2] it was 17.1 µM [falling, partial curve]; in experiment [3] it was 15.2 µM [falling, partial curve]; in experiment [4] it was 12.1 µM [falling, partial curve].

For the compound `COc1ccc(-c2nnn3c2nc(N2CCOCC2)c2ccccc23)cc1`, the IC50 is 21.5 µM [falling, partial curve] in experiment [1]; 21.5 µM [falling, partial curve] in experiment [2]; 21.5 µM [falling, partial curve, poor fit] in experiment [3]; 21.5 µM [falling, partial curve] in experiment [4].

Regarding `CC(C)(O)C1CC=C(C(=O)OC[C@H]2O[C@@H](OC(=O)C3=CCC(C(C)(C)O)CC3)[C@H](O)[C@@H](O)[C@@H]2O)CC1` (some centres not stated), the IC50 in experiment [1] was 8.35 µM [falling, partial curve].

Consider `CC1=CC(=O)C(=C(C)C)CC2C(C)(O)CCC12O` (configuration not stated), for which, in experiment [1], the IC50 was 1.52 µM [falling, full curve].

For the compound `COc1cc2c(cc1-c1c(C)noc1C)ncc1[nH]c(=O)n(C(C)c3ccccn3)c12` (configuration not stated), the IC50 is 21.7 µM [falling, partial curve] in experiment [1]; 12.2 µM [falling, partial curve] in experiment [2]; 21.7 µM [falling, partial curve, poor fit] in experiment [3].

Turning to `C/C(=N\N=C(N)N)c1cc(NC(=O)CCCCCCCCC(=O)Nc2cc(/C(C)=N/N=C(N)N)cc(/C(C)=N/N=C(N)N)c2)cc(/C(C)=N/N=C(N)N)c1`, the IC50 in experiment [1] was 27.1 µM [falling, partial curve]; in experiment [2], 15.2 µM [falling, partial curve]; in experiment [3], 24.1 µM [falling, partial curve]; in experiment [4] it was 21.5 µM [falling, partial curve].
